The subject of the assay is NCI-H322M lung. As to the kind of experiment: NCI tumour cell line growth inhibition, 48 h.

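These data come from cells grown in 96-well plates and exposed to compound for 48 hours at five concentrations. TGI is the concentration that stops growth completely.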 Where only a bound is given, the exact number is not on record here.

As for `CC(C)(C)C1CC[C@H]2c3c([nH]c4ccc(Br)cc34)[C@H]3C(=O)N(c4ccccc4)C(=O)[C@H]3[C@H]2C1` (some centres undefined), the TGI is over 100 µM. Consider `CCOC(C)OCC#CCCBr` (centres undefined), for which the TGI is over 100 µM. For the compound `CCOC(=O)c1cc2cc(Cc3ccc4[nH]c(C(=O)OCC)cc4c3)ccc2[nH]1`, the TGI is over 100 µM. For `Oc1c(OCc2nnc(CCCCCCCCc3nnc(COc4ccc5ccccc5c4O)n3Nc3ccccc3)n2Nc2ccccc2)ccc2ccccc12` the value was 44.9 µM.

For the origin of these results see PubChem BioAssay (NCI).
